# Source: PubChem BioAssay AID463173 (ICCB-Longwood Screening Facility, Harvard Medical School, 2010)
# About 4,300 (8.3%) of roughly 52,000 compounds were called active. No stated cut-off is given here; in the data, active means survival mostly below about 52% (no sharp cut-off); inactive means mostly above about 56%. This is one part of the list.
# System: DeltatarO mutant
# Assay: S. aureus survival, RN4220 and DeltatarO strains – OD600, teichoic acid synthesis inhibitors, primary screen (AID 463173)
# Settings: S. aureus RN4220 wild type/DeltatarO growth, OD600, 18 h, hits give low values, screened at 18.75 µg/mL (by protocol)
row,Structure (SMILES),survival
1,CSc1ccc(CCNC(=O)C(C)n2c(C)c3cnn(-c4ccccc4)c(=O)c3c2C)cc1 (stereo not drawn),inactive: 60%
2,Cc1oc(C2CC2)cc1C(=O)O,inactive: 70%
3,NC(=O)c1cc(S(=O)(=O)N2CCCCC2)cs1,inactive: 66%
4,COc1ccc(NC(=O)Cn2nnc(C(=O)NCc3ccccc3Cl)c2N)cc1Cl,inactive: 66%
5,COc1ccc(CCn2c3c(c(=O)[nH]c2=O)C(NC(=O)c2ccccc2)(C(F)(F)F)C(=O)N3)cc1OC (stereo not drawn),inactive: 58%
6,O=C(CCS(=O)(=O)c1ccc2c(c1)NC(=O)CO2)Nc1cccc(C(F)(F)F)c1,inactive: 90%
7,CCNC(=O)CC1C(=O)N(c2ccc(C)cc2)C(=O)N1Cc1ccc(C)cc1 (stereo not drawn),inactive: 78%
8,Oc1ccc(Cl)cc1Nc1nc2ccccc2n2cnnc12,inactive: 67%
9,O=C(CC(c1ccccc1)c1cc(Br)ccc1O)NCC1(c2ccccc2)CCCC1 (stereo not drawn),inactive: 127%
10,COc1ccc(CNC(=O)CCCc2cn(C)c3ccccc23)c(OC)c1,inactive: 87%
11,COc1ccccc1N(Cc1cc2cccc(C)c2[nH]c1=O)C(=O)c1cccc(Cl)c1,inactive: 98%
12,Cc1ccc(Cl)cc1N1CCN(C(=O)Cn2cnc3nc4c(cc3c2=O)CCCC4)CC1,inactive: 68%
13,N#C/C(=C\c1cn(CCOc2ccccc2F)c2ccccc12)C(=O)NC1CC1,inactive: 72%
14,Cc1ccc(C)n1-c1nnc(N2CCCC(C(=O)NCc3ccc(F)cc3)C2)s1 (stereo not drawn),inactive: 93%
15,O=C(NCc1ccc(Cl)cc1)c1cc2ccccc2o1,active: 61%
16,CCN(CC)C(=O)Cn1c(=O)n(CCCCCC(=O)NCc2ccccc2Cl)c(=O)c2sccc21,inactive: 139%
17,O=C(NCc1cccc(Br)c1)c1cccn1-c1nnc(N2CCCCC2)s1,inactive: 78%
18,CCn1cc(S(=O)(=O)c2cc(C)cc(C)c2)c(=O)c2cc(F)c(N3CCC(C)CC3)cc21,inactive: 64%
19,Cc1ccc2nc(-c3ccc(C)c(NC(=O)CSc4ccc(Cl)cc4)c3)oc2c1,inactive: 85%
20,CCOc1ccc(N(C(=O)c2ccc(C)cc2)S(=O)(=O)c2ccc3c(c2)n(C)c(=O)n3C)cc1,inactive: 45%
21,CCN1CCN(C(=O)c2ccc3c(c2)N(Cc2cccc(F)c2)C(=O)c2ccccc2S3)CC1,inactive: 85%
22,COCCCNC(=O)Cn1cnc2sc(C)c(S(=O)(=O)N3CCN(c4ccccc4OC)CC3)c2c1=O,inactive: 82%

row,Structure (SMILES),survival
1,CCOC(=O)c1cc(-c2ccc(C)cc2)n(CCC(=O)Nc2ccc(OC)c(OC)c2)c1C,active: 52%
2,CCCCCN1C(C(=O)c2ccccc2)=C(NC(=O)c2ccccc2Cl)c2ccccc2S1(=O)=O,inactive: 75%
3,COc1ccc(CCNC(=O)c2ccc3c(c2)N(Cc2ccc(Cl)cc2)CCS3)c(OC)c1,inactive: 83%
4,O=C(CCn1c(=O)c2cccn2c2cccnc21)N1CCN(c2cccc(Cl)c2)CC1,active: 46%
5,Cc1cccc(-c2nc(SCC(=O)Nc3ccc4c(c3)OCO4)c(-c3ccccc3)[nH]2)c1,active: 40%
6,COc1ccc(NC(=O)C2CCCN2S(=O)(=O)c2ccc3nc(-c4ccccc4)[nH]c3c2)cc1 (stereo not drawn),inactive: 77%
7,Cc1cccc(C)c1NC(=O)CS(=O)CC(=O)NC1CCCc2ccccc21 (stereo not drawn),inactive: 84%
8,CN1C(=O)Cc2cc(S(=O)(=O)NCCc3ccccc3)ccc21,inactive: 123%
9,CCN(CC)C(=O)Oc1ccc(Cl)c2cccnc12,inactive: 102%
10,COC(=O)c1ccc(NC(=O)C2CCN(C(=O)c3ccc(F)cc3)CC2)cc1,inactive: 73%
11,Cc1cc(C)nc(NCCS)n1,inactive: 76%
12,N#Cc1cccc(NC(=O)C2CCN(c3ncccn3)CC2)c1,inactive: 66%
13,CCOc1cc(C(=O)Nc2ccc(-c3nc4ncccc4o3)cc2C)cc(OCC)c1OCC,active: 52%
14,COc1ccc2[nH]c(=O)c(CN(CCCN3CCOCC3)C(=O)NCc3ccccc3)cc2c1,inactive: 86%
15,COC(=O)c1c(NC(=O)COc2cc(C)ccc2C(C)C)sc2c1CCC(C)C2 (stereo not drawn),inactive: 61%
16,O=C1C(=O)N(c2cccnc2)C(c2ccc(O)cc2)/C1=C(\O)c1ccc(Br)cc1 (stereo not drawn),inactive: 95%
17,CC(=O)c1ccc(N2CCN(S(=O)(=O)c3ccc(-c4cc(C)no4)s3)CC2)cc1,active: -5%
18,COc1ccc(-c2nc3n(n2)C(=O)CC(c2ccc(Cl)cc2)S3)cc1 (stereo not drawn),inactive: 57%
19,Cc1ccc(-c2ccc(=O)n(CC(=O)NCc3ccc(F)cc3)n2)cc1,inactive: 92%
20,CCOC(=O)C1CCN(S(=O)(=O)c2ccc3c(c2)NC(=O)C(C)C(=O)N3)CC1 (stereo not drawn),inactive: 105%
21,Cc1ccc2nc3c(cc(C(=O)NC4CCCCC4)c(=N)n3C(C)C)c(=O)n2c1,inactive: 78%
22,CCOC(=O)c1ccc(NC(=O)CC2NCCNC2=O)cc1 (stereo not drawn),inactive: 78%

row,Structure (SMILES),survival
1,CCn1c2ccccc2c2cc(NC(=O)COc3ccc(C)c(C)c3)ccc21,inactive: 119%
2,COc1ccc2c(c1)c1c(c(=O)n(-c3ccccc3C)c(=O)n1CC(=O)Nc1c(C)cccc1C)n2C,inactive: 91%
3,Cc1ccccc1Nc1nn2c(=O)c3ccc(C(=O)N4CCCC(C)C4)cc3nc2s1 (stereo not drawn),inactive: 95%
4,O=c1c2[nH]c3ccccc3c2nc(SCc2cccc(F)c2)n1-c1ccccc1,inactive: 54%
5,O=C(O)CCc1ccc(-c2ccccc2)n1CC(=O)Nc1ccccc1C(F)(F)F,inactive: 60%
6,COc1ccccc1CNC(=O)CCCCn1c(=O)c2ccccc2n(CC(=O)Nc2cc(Cl)ccc2C)c1=O,inactive: 82%
7,Cn1c(=O)[nH]c2cc(-c3noc(-c4ccc(F)cc4)n3)ccc21,inactive: 126%
8,CCn1c(=O)cc(SCC(=O)NCCc2ccc(OC)cc2OC)c2ccccc21,inactive: 60%
9,COCCCNC(=O)CSc1nc(-c2ccccc2)[nH]c1-c1ccc(C)cc1,inactive: 71%
10,CCc1ccc(-n2c(=O)c3c4c(sc3n(CC(=O)NC(C)CC)c2=O)CCCC4)cc1 (stereo not drawn),inactive: 98%
11,CCn1c(Cc2ccccc2)nnc1SCC(=O)Nc1ccccc1,inactive: 90%
12,CCCn1c(=O)c2sccc2n2c(CCCC(=O)Nc3cccc(CC)c3)nnc12,inactive: 99%
13,CCc1cnc2c(c1SCC(=O)Nc1ccc(C)cc1C)c(=O)n(C)c(=O)n2C,inactive: 86%
14,Cc1ccc(NC(=O)CCC(=O)N2Cc3ccccc3Oc3ncccc32)cc1,inactive: 49%
15,COc1cccc(OC)c1C(=O)Nc1ccc2c(c1)N(C(C)=O)CCC2,inactive: 78%
16,O=C(CCc1ccccc1)NC1CC(=O)N(c2ccccc2)C1 (stereo not drawn),inactive: 94%
17,CNc1cc(=O)n(C)c(=O)[nH]1,inactive: 98%
18,O=C1CC(c2ccc(Cl)cc2)Sc2nc(-c3ccc(F)cc3)nn21 (stereo not drawn),inactive: 81%
19,O=C(CC1(c2ccc(Cl)cc2)C(=O)c2ccccc2C1=O)N1CCOCC1,inactive: 79%
20,CCOc1ccc(CNS(=O)(=O)c2cc(-c3cc(C)no3)ccc2C)cc1OC,inactive: 77%
21,COc1ccc(-c2cnc(C)o2)cc1S(=O)(=O)Nc1ccc(C)c(N(C)C)c1,inactive: 120%
22,CC1=NNC(=O)C1CC(=O)N/N=C/C=C/c1ccccc1 (stereo not drawn),inactive: 74%

row,Structure (SMILES),survival
1,CCOC(=O)Cn1c(=O)n(-c2ccccc2OC)c2nc(-c3ccccc3C)nc(C(N)=O)c21,inactive: 79%
2,Cc1ccccc1C(=O)Nc1nnc(S(=O)(=O)N2CCCCCC2)s1,active: 47%
3,COC(=O)CC1Oc2ccccc2-n2cc(-c3ccc(Cl)cc3)nc21 (stereo not drawn),inactive: 69%
4,Cc1ccc(Cl)cc1N1CCN(C(=O)C2CCN(Cc3nc(-c4cccc(Cl)c4)oc3C)CC2)CC1,active: -8%
5,COc1ccc(CNC(=O)Cc2csc3nc(-c4ccc(C)cc4)cn23)cc1,inactive: 88%
6,Cc1cccc(-c2nc(SCC(=O)Nc3ccc4c(c3)OCCO4)c(-c3ccccc3)[nH]2)c1,inactive: 58%
7,CCc1nn2c(=O)cc(COC(=O)C(c3ccccc3)c3ccccc3)nc2s1,inactive: 91%
8,CCOc1ccc2[nH]c(=O)c(CN(C(=S)NCc3ccco3)C3CCCC3)cc2c1,inactive: 100%
9,Cc1cc(C)cc(N(CC(=O)NCc2ccccc2Cl)S(=O)(=O)c2c(C)noc2C)c1,inactive: 95%
10,O=C(Cn1nc(-c2ccccc2)ccc1=O)Nc1ccc(N2CCN(C(=O)c3ccccc3)CC2)cc1,inactive: 68%
11,O=C(c1c[nH]c2c(F)cccc2c1=O)N1CCNCC1,inactive: 54%
12,CCOc1ccc(NC(=O)Cn2c(=O)n(CCC(=O)NCCc3ccccc3)c(=O)c3ccccc32)cc1,inactive: 95%
13,CCCn1cc(S(=O)(=O)c2ccc(CC)cc2)c(=O)c2ccccc21,inactive: 87%
14,Cc1ccc(Cn2c(=O)n(Cc3ccccc3Cl)c(=O)c3ccccc32)cc1,active: 48%
15,CCCCc1nn2c(=O)cc(COC(=O)c3ccc(NC(=O)C4CCCCC4)cc3)nc2s1,inactive: 91%
16,Cc1ccc2occ(-c3cc(-c4ccc(Cl)cc4)nc4c3COc3ccccc3-4)c(=O)c2c1,inactive: 86%
17,Cc1ccc(N(C)C(=O)C2CCCN(c3ncnc4c3nc3n4CCCCC3)C2)cc1C (stereo not drawn),inactive: 117%
18,Cc1cccc(C(=O)Nc2ccccc2SCc2cc(=O)c3cccc(C)c3[nH]2)c1,inactive: 84%
19,Cc1nnc(N2CCN(c3ccccc3F)CC2)c2c1nnn2Cc1ccccc1,inactive: 85%
20,CCOC(=O)c1ccc(NC(=O)CN2C(=O)COc3ccc(Cl)cc32)cc1,inactive: 75%
21,CC1=C(C(=O)OC2CCCC2)C(c2ccccc2Cl)CC(=O)N1 (stereo not drawn),inactive: 70%
22,Cc1cccc(N2CCN(C3(c4ccccc4)C(=O)c4ccccc4C3=O)CC2C)c1 (stereo not drawn),inactive: 132%
